Reference: patent US20240209028A1, “CNP COMPOUNDS” (priority 2022, published 2024)
The name of at least one read-out is uncertain. Starred links: 1 amine or outer side, 2 acyl side, 3 side chain; linkers in the order of their positions; H or OH if unused. Positions of bridges follow the written chain, without caps; N, C: chain ends. Residues, ends and D or L forms follow the SMILES beside them. *: point of attachment. C18 diacid = O=C(O)CCCCCCCCCCCCCCCCC(=O)*; γGlu = O=C(O)[C@H](CCC(=O)[*:2])N[*:1]; AEEA = NCCOCCOCC(=O)O

Assay: Thioflavin T (ThT) assay: lagtime and peptide recovery
Format: physicochemical
Settings: for Peptide Recovery (%) at pH 6.5: ThT assay, pH 6.5, after 45h incubation
Excerpt: The ThT assay was used to evaluate physical stability of the CNP compounds and their suitability for liquid formulation. Low physical stability of peptides may lead to amyloid fibril formation, which is observed as well-ordered, thread-like macromolecular structures in the sample eventually resulting in gel formation. This has traditionally been tested by visual inspection of the sample. However, that kind of measurement is very subjective and depending on the observer. Therefore, the application of a small molecule indicator probe is much more advantageous. Thioflavin T (ThT) is such a probe and has a distinct fluorescence signature when binding to fibrils [Naiki et al. (1989) Anal. Biochem. 177, 244-249; LeVine (1999) Methods. Enzymol. […], 274-284].
Procedure: Thioflavin T was added to the supernatant samples from Example 5 (pH 4.0 and 6.5) using an aqueous ThT stock solution to a final concentration of about 1 μM in the samples. Sample aliquots of 150 μL were placed in a 96 well microtiter plate (Packard OptiPlate™-96, white polystyrene). Usually, two to three replicas of each sample were applied to the plate. The plate was sealed and placed in a fluorescence plate reader (Fluoroskan Ascent FL) and incubated at 37° C. with orbital shaking (960 rpm; 1 mm amplitude). Fluorescence measurements were performed every 20 minutes using excitation through a 444 nm filter and measurement of emission through a 485 nm filter. Between each measurement, the plate was shaken and heated as described above and the assay was terminated after 45 hours. Fluorescence measurements for each microtiter plate well were plotted against time and the lag-time (time until an increase in ThT fluorescence was observed) was estimated.
To assess loss of dissolved peptide following 45h incubation, peptide recovery was measured as the ratio between total peak area after incubation vs. before incubation using the RP-UPLC method described below.
Measurement of LagTime and Peptide recovery % using RP-UPLC: RP-UPLC was conducted using an Acquity UPLC BEH C18 1.7 μm (2.1×30 mm) Waters column (Eluent A: 0.1% v/v % TFA in water; Eluent B: 0.1% v/v TFA in acetonitrile/water 4:1) with gradient elution (0 min: 95% A; 2 min: 20% A; 2.3 min: 20% A; 2.4 min: 95% A; 9 min: 95% A) in a flow rate of 0.9 mL/min and a column temperature of 30° C. UV-detection at 215 nm was used to assess the total peptide area.
Samples at pH 4.0 were prepared as described in Example 5 and subjected to the ThT assay as described above.
Samples at pH 6.5 were prepared as described in Example 5 and subjected to the ThT assay as described above.

| SMILES | Peptide Recovery (%) at pH 6.5 [%] | Peptide Recovery (%) at pH 4.0 (after 45 h ThT incubation vs before, RP-UPLC) [%] |
| --- | --- | --- |
| CC[C@H](C)[C@@H]1NC(=O)[C@H](CCCNC(=N)N)NC(=O)[C@H](CC(=O)O)NC(=O)[C@H](CC(C)C)NC(=O)[C@@H]2CCCN2C(=O)[C@H](CC(C)C)NC(=O)CNC(=O)[C@H](Cc2ccccc2)NC(=O)[C@@H](NC(=O)CNC(=O)[C@H](CO)NC(=O)[C@H](CO)NC(=O)[C@@H](NC(=O)CNC(=O)[C@@H](NC(=O)[C@H](CCCCN)NC(=O)[C@H](CCC(N)=O)NC(=O)[C@H](C)NC(=O)CNC(=O)[C@H](Cc2c[nH]cn2)NC(=O)[C@H](Cc2ccc(O)cc2)NC(=O)COCCOCCNC(=O)COCCOCCNC(=O)CC[C@H](NC(=O)CCCCCCCCCCCCCCCCC(=O)O)C(=O)O)[C@@H](C)O)C(C)C)CSSC[C@@H](C(=O)O)NC(=O)CNC(=O)[C@H](CC(C)C)NC(=O)CNC(=O)[C@H](CO)NC(=O)[C@H](CC(C)C)NC(=O)[C@H](CO)NC(=O)CNC1=O [compound 1303] ({C18 diacid-γGlu-AEEA-AEEA}-YHGAQKTGVSSGCFGLPLDRIGSLSGLGC-OH; disulfide 13-29) | 16 |  |
| CC[C@H](C)[C@@H]1NC(=O)[C@H](CCCNC(=N)N)NC(=O)[C@H](CC(=O)O)NC(=O)[C@H](CC(C)C)NC(=O)[C@@H]2CCCN2C(=O)[C@H](CC(C)C)NC(=O)CNC(=O)[C@H](Cc2ccccc2)NC(=O)[C@@H](NC(=O)CNC(=O)[C@H](CO)NC(=O)[C@H](CO)NC(=O)[C@H](CC(C)C)NC(=O)CNC(=O)[C@@H](NC(=O)[C@H](Cc2c[nH]cn2)NC(=O)[C@H](CCC(N)=O)NC(=O)[C@H](C)NC(=O)CNC(=O)[C@H](Cc2c[nH]cn2)NC(=O)[C@H](Cc2ccc(O)cc2)NC(=O)COCCOCCNC(=O)COCCOCCNC(=O)CC[C@H](NC(=O)CCCCCCCCCCCCCCCCC(=O)O)C(=O)O)[C@@H](C)O)CSSC[C@@H](C(=O)O)NC(=O)CNC(=O)[C@H](CC(C)C)NC(=O)CNC(=O)[C@H](CO)NC(=O)[C@H](CC(C)C)NC(=O)[C@H](CO)NC(=O)CNC1=O [compound 1304] ({C18 diacid-γGlu-AEEA-AEEA}-YHGAQHTGLSSGCFGLPLDRIGSLSGLGC-OH; disulfide 13-29) | 141 |  |
| CC[C@H](C)[C@@H]1NC(=O)[C@H](CCCNC(=N)N)NC(=O)[C@H](CC(=O)O)NC(=O)[C@H](CC(C)C)NC(=O)[C@@H]2CCCN2C(=O)[C@H](CC(C)C)NC(=O)CNC(=O)[C@H](Cc2ccccc2)NC(=O)[C@@H](NC(=O)CNC(=O)[C@H](CO)NC(=O)[C@H](CO)NC(=O)[C@H](CC(C)C)NC(=O)CNC(=O)[C@H](CCCCN)NC(=O)[C@H](CCCCN)NC(=O)[C@H](CCC(N)=O)NC(=O)[C@H](C)NC(=O)CNC(=O)[C@H](Cc2c[nH]cn2)NC(=O)[C@H](CCC(=O)O)NC(=O)COCCOCCNC(=O)COCCOCCNC(=O)CC[C@H](NC(=O)CCCCCCCCCCCCCCCCC(=O)O)C(=O)O)CSSC[C@@H](C(=O)O)NC(=O)CNC(=O)[C@H](CC(C)C)NC(=O)CNC(=O)[C@H](CO)NC(=O)[C@H](CC(C)C)NC(=O)[C@H](CO)NC(=O)CNC1=O [compound 1310] ({C18 diacid-γGlu-AEEA-AEEA}-EHGAQKKGLSSGCFGLPLDRIGSLSGLGC-OH; disulfide 13-29) | 117 |  |
| CC[C@H](C)[C@@H]1NC(=O)[C@H](CCCNC(=N)N)NC(=O)[C@H](CC(=O)O)NC(=O)[C@H](CC(C)C)NC(=O)[C@@H]2CCCN2C(=O)[C@H](CC(C)C)NC(=O)CNC(=O)[C@H](Cc2ccccc2)NC(=O)[C@@H](NC(=O)CNC(=O)[C@H](CO)NC(=O)[C@H](CO)NC(=O)[C@@H](NC(=O)CNC(=O)[C@@H](NC(=O)[C@H](Cc2c[nH]cn2)NC(=O)[C@H](CCC(N)=O)NC(=O)[C@H](C)NC(=O)CNC(=O)[C@H](Cc2c[nH]cn2)NC(=O)[C@H](Cc2ccc(O)cc2)NC(=O)[C@H](CCCCN)NC(=O)[C@H](CCCNC(=N)N)NC(=O)[C@H](C)NC(=O)COCCOCCNC(=O)COCCOCCNC(=O)CC[C@H](NC(=O)CCCCCCCCCCCCCCCCC(=O)O)C(=O)O)[C@@H](C)O)C(C)C)CSSC[C@@H](C(=O)O)NC(=O)CNC(=O)[C@H](CC(C)C)NC(=O)CNC(=O)[C@H](CO)NC(=O)[C@H](CC(C)C)NC(=O)[C@H](CO)NC(=O)CNC1=O [compound 1351] ({C18 diacid-γGlu-AEEA-AEEA}-ARKYHGAQHTGVSSGCFGLPLDRIGSLSGLGC-OH; disulfide 16-32) |  | 110 |
